Consider six substances from PMC12120796.

Chains of the proteins cited; added tags and fusions are not shown.
UniProt Q92830: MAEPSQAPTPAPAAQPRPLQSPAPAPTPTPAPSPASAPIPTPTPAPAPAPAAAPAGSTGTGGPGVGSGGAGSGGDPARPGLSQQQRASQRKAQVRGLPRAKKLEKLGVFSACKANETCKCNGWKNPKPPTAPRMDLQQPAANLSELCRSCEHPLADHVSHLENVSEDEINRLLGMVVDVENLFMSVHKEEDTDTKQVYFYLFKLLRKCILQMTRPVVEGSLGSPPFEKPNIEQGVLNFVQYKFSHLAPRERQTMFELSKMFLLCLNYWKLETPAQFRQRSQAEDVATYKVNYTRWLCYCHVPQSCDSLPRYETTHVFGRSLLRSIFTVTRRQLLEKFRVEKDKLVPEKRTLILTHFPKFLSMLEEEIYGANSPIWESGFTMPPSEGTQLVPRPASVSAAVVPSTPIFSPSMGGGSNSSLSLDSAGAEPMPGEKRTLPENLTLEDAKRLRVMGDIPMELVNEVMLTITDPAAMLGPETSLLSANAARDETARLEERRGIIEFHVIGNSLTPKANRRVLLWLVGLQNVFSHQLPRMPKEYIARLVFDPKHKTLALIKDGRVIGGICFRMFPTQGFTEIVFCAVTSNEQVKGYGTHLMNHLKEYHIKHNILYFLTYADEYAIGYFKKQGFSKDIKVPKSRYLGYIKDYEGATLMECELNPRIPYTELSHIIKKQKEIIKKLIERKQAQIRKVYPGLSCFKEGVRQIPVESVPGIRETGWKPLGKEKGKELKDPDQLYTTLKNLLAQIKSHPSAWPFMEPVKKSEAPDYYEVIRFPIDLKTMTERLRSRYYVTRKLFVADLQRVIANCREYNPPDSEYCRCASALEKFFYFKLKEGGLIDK
UniProt Q92831: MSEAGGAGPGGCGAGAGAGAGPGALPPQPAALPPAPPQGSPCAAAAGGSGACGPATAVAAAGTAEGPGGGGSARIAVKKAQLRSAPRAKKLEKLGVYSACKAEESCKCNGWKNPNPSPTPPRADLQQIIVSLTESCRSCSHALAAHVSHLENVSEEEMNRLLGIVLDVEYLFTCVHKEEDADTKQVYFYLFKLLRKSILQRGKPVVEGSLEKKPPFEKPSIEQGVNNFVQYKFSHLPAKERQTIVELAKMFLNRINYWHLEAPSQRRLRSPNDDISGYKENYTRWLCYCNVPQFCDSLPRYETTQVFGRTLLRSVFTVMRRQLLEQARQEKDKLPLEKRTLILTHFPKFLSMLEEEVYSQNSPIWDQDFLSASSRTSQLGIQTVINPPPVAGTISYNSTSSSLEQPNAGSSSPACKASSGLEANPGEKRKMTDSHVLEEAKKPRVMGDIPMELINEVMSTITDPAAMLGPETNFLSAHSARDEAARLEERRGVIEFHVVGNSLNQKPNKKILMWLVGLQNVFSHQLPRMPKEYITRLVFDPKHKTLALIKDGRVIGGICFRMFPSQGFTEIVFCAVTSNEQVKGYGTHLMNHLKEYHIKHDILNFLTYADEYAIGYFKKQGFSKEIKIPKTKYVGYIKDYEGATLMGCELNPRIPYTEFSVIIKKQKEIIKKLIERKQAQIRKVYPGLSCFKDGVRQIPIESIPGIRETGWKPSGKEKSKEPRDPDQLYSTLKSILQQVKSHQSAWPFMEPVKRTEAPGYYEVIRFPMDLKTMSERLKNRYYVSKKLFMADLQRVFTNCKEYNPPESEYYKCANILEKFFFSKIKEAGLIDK
UniProt Q09472: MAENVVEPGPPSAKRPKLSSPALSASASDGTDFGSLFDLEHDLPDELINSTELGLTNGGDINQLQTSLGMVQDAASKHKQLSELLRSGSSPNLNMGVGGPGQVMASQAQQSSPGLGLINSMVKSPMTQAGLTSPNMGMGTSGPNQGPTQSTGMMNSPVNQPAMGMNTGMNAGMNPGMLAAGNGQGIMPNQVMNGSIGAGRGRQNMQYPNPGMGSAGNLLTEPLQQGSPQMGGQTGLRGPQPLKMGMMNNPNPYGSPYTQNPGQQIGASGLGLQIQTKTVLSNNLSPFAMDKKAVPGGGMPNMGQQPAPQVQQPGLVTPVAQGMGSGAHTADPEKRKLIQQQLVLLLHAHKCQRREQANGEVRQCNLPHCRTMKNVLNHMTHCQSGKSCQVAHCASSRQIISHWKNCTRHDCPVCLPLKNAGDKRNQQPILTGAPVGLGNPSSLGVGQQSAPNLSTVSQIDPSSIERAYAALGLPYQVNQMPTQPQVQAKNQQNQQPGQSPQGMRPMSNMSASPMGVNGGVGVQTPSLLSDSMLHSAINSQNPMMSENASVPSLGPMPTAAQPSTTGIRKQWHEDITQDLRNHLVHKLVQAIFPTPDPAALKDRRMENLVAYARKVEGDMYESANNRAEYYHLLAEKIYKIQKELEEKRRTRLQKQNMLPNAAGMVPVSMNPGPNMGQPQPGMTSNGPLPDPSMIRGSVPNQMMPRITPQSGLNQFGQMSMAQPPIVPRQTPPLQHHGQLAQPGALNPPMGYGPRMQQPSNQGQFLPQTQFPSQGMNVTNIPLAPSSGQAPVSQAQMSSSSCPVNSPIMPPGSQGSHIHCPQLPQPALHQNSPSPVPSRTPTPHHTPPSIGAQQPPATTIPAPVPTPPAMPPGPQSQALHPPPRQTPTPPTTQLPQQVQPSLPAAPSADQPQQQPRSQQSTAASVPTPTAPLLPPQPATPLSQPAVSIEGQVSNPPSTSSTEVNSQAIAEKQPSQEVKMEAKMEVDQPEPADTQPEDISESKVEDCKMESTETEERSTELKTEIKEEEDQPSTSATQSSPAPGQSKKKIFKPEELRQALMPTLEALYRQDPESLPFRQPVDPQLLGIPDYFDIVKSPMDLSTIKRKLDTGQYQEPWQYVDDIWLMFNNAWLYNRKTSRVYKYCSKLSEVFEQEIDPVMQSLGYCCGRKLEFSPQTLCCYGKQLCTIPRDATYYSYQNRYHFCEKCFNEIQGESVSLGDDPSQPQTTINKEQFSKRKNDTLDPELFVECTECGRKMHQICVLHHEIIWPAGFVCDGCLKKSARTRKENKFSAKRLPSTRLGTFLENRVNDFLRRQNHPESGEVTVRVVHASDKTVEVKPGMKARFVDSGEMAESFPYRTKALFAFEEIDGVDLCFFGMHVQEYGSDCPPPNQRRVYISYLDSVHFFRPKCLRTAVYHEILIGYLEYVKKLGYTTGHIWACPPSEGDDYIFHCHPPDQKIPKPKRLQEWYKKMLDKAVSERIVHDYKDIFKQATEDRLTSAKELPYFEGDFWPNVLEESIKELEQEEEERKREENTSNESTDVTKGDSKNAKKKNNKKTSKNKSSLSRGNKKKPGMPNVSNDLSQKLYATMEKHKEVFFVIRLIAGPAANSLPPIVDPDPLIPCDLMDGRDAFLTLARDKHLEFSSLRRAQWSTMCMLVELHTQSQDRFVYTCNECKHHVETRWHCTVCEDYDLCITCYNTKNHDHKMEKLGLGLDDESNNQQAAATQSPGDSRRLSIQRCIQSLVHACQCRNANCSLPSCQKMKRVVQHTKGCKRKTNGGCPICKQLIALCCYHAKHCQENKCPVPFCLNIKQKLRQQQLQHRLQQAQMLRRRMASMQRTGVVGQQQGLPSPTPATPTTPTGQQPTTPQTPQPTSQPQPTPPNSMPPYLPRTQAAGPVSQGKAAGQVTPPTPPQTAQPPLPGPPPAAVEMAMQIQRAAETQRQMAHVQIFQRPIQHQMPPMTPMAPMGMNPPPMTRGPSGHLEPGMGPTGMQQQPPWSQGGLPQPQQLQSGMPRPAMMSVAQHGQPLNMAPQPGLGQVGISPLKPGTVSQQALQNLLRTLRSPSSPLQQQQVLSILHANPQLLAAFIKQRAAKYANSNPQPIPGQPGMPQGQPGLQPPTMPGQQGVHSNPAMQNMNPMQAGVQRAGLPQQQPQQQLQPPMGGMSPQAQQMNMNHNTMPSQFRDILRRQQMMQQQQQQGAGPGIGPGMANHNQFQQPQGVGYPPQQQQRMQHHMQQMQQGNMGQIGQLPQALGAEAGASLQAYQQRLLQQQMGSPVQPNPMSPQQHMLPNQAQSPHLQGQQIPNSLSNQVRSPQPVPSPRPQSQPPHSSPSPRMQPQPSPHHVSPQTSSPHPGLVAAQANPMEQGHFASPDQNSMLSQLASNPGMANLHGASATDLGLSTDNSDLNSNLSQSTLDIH
UniProt O14980: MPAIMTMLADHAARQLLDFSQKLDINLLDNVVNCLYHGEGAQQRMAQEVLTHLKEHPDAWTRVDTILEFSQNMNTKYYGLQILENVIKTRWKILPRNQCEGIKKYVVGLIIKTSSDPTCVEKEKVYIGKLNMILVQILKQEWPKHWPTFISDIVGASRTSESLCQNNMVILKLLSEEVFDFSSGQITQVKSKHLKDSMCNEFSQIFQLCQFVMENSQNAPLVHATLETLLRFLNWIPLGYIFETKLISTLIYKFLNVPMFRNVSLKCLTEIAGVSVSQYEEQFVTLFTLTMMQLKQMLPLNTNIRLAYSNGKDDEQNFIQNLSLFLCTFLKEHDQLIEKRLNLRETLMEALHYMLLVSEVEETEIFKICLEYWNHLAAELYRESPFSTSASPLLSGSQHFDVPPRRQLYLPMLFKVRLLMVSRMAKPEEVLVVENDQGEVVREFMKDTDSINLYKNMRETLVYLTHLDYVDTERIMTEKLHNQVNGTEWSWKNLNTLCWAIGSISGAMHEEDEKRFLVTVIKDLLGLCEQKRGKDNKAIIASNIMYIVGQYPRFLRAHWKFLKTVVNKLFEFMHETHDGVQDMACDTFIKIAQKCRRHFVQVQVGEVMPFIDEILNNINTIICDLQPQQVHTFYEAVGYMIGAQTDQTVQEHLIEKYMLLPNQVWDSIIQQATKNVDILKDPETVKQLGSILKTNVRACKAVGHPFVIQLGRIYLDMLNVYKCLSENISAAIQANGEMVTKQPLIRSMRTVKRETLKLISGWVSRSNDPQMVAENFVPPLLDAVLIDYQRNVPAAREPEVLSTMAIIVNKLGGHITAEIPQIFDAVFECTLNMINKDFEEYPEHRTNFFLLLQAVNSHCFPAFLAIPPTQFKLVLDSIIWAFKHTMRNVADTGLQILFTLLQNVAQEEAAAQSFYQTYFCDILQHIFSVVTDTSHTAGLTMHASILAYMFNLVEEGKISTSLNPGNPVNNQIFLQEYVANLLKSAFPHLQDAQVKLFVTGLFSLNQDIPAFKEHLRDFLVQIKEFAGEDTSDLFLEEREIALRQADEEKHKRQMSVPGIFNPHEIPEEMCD
UniProt P42224: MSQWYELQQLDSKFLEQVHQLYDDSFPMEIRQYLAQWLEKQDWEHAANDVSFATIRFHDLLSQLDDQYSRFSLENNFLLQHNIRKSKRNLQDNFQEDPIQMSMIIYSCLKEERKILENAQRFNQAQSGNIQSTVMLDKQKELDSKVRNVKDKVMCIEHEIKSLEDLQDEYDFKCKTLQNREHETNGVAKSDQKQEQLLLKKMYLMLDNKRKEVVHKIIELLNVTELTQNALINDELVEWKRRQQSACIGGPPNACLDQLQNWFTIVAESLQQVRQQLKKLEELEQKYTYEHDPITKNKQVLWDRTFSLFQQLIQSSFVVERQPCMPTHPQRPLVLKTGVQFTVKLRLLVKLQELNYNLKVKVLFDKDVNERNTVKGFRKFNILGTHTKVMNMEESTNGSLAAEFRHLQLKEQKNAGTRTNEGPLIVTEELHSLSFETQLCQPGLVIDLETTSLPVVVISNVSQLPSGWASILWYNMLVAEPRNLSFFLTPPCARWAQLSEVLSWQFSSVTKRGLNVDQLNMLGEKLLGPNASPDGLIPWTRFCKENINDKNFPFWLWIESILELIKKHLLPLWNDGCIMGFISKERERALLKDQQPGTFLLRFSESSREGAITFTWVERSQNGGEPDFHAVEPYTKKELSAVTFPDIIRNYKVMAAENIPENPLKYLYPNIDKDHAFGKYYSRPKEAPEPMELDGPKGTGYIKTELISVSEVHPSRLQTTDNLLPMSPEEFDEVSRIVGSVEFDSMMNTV

These are yes or no findings as the source states them, for the method shown. In cells and extracts the contact can be indirect. Some binding calls cover weakened binding; strength is not graded here. Sequences can lack the tags named with a protein.

In this experiment the target is T1, UDP‐glucose dehydrogenase (UGDH) (human (endogenous in human primary chondrocytes)) (UniProt O60701).
T1 sequence: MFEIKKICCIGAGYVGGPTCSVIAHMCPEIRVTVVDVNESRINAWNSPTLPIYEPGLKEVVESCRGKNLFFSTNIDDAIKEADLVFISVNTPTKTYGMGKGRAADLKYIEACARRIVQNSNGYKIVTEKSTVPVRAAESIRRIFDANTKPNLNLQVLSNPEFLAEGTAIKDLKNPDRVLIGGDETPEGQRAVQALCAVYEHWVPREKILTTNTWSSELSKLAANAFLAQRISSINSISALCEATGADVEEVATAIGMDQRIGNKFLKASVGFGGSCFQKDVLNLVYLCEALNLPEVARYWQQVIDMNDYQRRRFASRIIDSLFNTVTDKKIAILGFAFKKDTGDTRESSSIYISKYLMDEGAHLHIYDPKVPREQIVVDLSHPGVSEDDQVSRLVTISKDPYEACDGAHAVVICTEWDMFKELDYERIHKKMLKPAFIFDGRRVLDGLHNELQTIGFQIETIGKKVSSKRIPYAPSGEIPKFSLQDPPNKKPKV
The experiment in a line: co-IP; IP with anti-UGDH antibody (Sino Biological, 200912-T44) and Protein A/G PLUS-Agarose from 1 mg of human primary chondrocyte lysate, 4 °C for 12 h, rabbit IgG as negative control, Western blot; cells treated with PBS, lactate (25 mM), IL-1β (10 ng/ml) or IL-1β + DCA (20 mM). Background: A western blot detects proteins with antibodies after separation by electrophoresis.
Regarding “CBP (from UniProt Q92793 1-2442) (enzyme)”, the binding entry is “no binding”. As for “GCN5 (from UniProt Q92830 1-837) (enzyme)”, the entry is “no binding”; as for “PCAF (from UniProt Q92831 1-832) (enzyme)”, “no binding”; as for “acyltransferase P300 (from UniProt Q09472 1-2414) (enzyme)”, “binds”.

Consider “nuclear export receptor chromosome region maintenance 1 (CRM1) (from UniProt O14980 1-1071)”, for which the binding result is recorded as “binds”.

“signal transducer and activator of transcription 1 (STAT1) (from UniProt P42224 1-750)”: the binding entry is listed as “binds”.
